Screen size: about 48,000 compounds; about 120 (0.25%) were called active. Roughly 4% stayed inconclusive and do not appear here. Calls come from the whole dose curve; as a rule, active = well fitted activation curve with a large enough effect; inconclusive = small, poorly fitted or top-dose-only effect, or another doubt; inactive = no such curve, though single readings can be large or run the other way. The list shows a part of the results.
Test: Primary qHTS for Identification of Small Molecule Activators of Huntingtin-Antisense Promoter Activity; note: nearly all actives have a fitted effect of over 55% in size
Settings: HEK293 HTT-AS promoter firefly luciferase reporter, 24 h; series mostly up to 57.5 µM; activity change, positive = activation: at the top concentration
Method in brief: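 Firefly luciferase signal from promoter-reporter HEK293 cells was scaled between vehicle (0%) and zero RLU (-100%). Compounds were tested at final concentrations of up to 57.5 uM over 24 h at 37 degrees C. PTC124 at 50 uM final served as control inhibitor.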

| Compound | activity change, positive = activation |
| --- | --- |
| CCOc1ccc(-n2c(=O)c3c(C)c(C(=O)N(C)C)sc3n(CC(=O)Nc3c(C)cc(C)cc3C)c2=O)cc1 | inactive: -11.4% |
| Cc1cccc(NC(=O)CSc2nc3c([nH]c4ccccc43)c(=O)n2C)c1 | inactive: -26% |
| Cc1ccc(CN(C(=O)COc2ccc(C)c(C)c2)C2CCS(=O)(=O)C2)o1 (stereo unspecified) | inactive: -14.7% |
| COc1ccc(S(=O)(=O)Nc2cc(-c3cn4ccccc4n3)ccc2C)cc1 | inactive: -13.2% |
| Cc1nn(C)c2c1c(C(F)(F)F)cc(=O)n2CC(=O)NCc1ccccc1Cl | inactive: -25.8% |
| Cc1ccc(CC(=O)Nc2c(C(=O)N3CCN(c4ccccc4F)CC3)oc3ccccc23)cc1 | inactive: -21.6% |
| CCc1cccc(CC)c1NC1=NS(=O)(=O)c2ccccc21 | inactive: 7.04% |
| CCOc1ccccc1NC(=O)C(C)Sc1nc2c(c(=O)[nH]1)CCCC2 (stereo unspecified) | inactive: -11% |
| Cc1ccc(NS(=O)(=O)c2ccc3c(c2)NC(=O)CCS3)c(Br)c1 | inactive: -33.6% |
| CCOC(=O)c1ccccc1NC(=O)CCc1c(C)nc2ncnn2c1C | inactive: -5.03% |
| CCOCCCNC(=O)CCc1nnc2ccc(N3CCN(c4cccc(OC)c4)CC3)nn12 | inactive: 3.55% |
| Cc1ccc(NCc2nnc3n2CCCCC3)cc1Cl | inactive: 8.16% |
| CN1C(C(=O)Nc2ccc(F)cc2F)=CC(c2cccs2)=NS1(=O)=O | inactive: -26.7% |
| CCn1nc(-c2ccccc2)c(-c2ccccc2)c(C(=O)OCCOC)c1=O | inactive: -22.4% |
| Cc1ccc2c(=O)cc(C(=O)Nc3nnc(C)s3)oc2c1 | inactive: 9.81% [at 11.5 µM, percent change from vehicle, -100% = no light] |
| CCOC(=O)C1=C(CN2CCC(C(=O)OCC)CC2)NC(=O)NC1c1ccc(Cl)cc1 (stereo unspecified) | inactive: -39% |
| Cc1oc(-c2ccccc2)nc1CNC(=O)Nc1ccccc1 | inactive: -20.1% |
| CCc1cccc(C)c1NC(=O)c1cnn(-c2ccc(F)cc2)c1-n1cccc1 | inactive: -30.6% |
| CSc1nn(Cc2cccc(F)c2)c(N(C(C)=O)C(C)=O)c1S(=O)(=O)c1ccccc1 | inactive: -32.4% |
| Cc1cccc(S(=O)(=O)c2cn(Cc3ccccc3)c3cc(N4CCCC(C)C4)c(F)cc3c2=O)c1 (stereo unspecified) | inactive: -1.97% |
| Clc1ccc(CSc2nc(NCCc3ccccc3)c3ccccc3n2)cc1 | inactive: -15% |
| Cc1cc(NC(=O)C2CCCN(S(=O)(=O)c3cccc4nonc34)C2)ccc1Br (stereo unspecified) | inactive: -4.81% |
| COc1ccc(OC)c(CNCc2c(C(=O)O)n(Cc3ccccc3)c3cc(OC)ccc23)c1 | inactive: -15.6% |

| Compound | activity change, positive = activation |
| --- | --- |
| CCC(=O)N1CCc2cc(S(=O)(=O)NC(CC(C)C)C(=O)Nc3ccc(CC)cc3)ccc21 (stereo unspecified) | inactive: -3.99% |
| O=C1Nc2ccccc2Oc2cc(Oc3ccc(Cl)cc3)ccc21 | inactive: -22.1% |
| O=C(CN1N=C(c2ccc(Cl)cc2)CCC1=O)NCc1ccc(F)cc1 | inactive: -13.3% |
| Cc1ccc(NC(=O)Cn2c(=O)oc3cc(S(=O)(=O)N4CCCC4)ccc32)cc1F | inactive: -32.9% |
| COc1cccc(C2C(C(=O)Nc3cccnc3)=C(C)Nc3nc(SCc4ccccc4)nn32)c1 (stereo unspecified) | inactive: -4.99% |
| CCOC(=O)c1ccc(NC(=O)C2CCCN(c3ncnc4onc(C)c34)C2)cc1 (stereo unspecified) | inactive: -31.2% |
| Cc1nc2ccc(S(=O)(=O)CCC(=O)Nc3ccccc3C)cc2s1 | inactive: -6.98% |
| O=C(CC1NCCNC1=O)Nc1cccc(F)c1 (stereo unspecified) | inactive: -6.83% |
| Cc1ccc2ncc3c(-c4ccccc4)nn(CC(=O)NC4CCCCC4)c3c2c1 | inactive: -12% |
| COc1ccccc1N1CCN(CCCNC(=O)Cn2ncc3c([nH]c4ccccc43)c2=O)CC1 | inactive: -14.5% |
| COc1ccc(NC(=O)CSC2=Nc3ccccc3C3=NC(CCC(=O)NCc4ccco4)C(=O)N23)cc1 (stereo unspecified) | inactive: -9.04% |
| COc1ccccc1CNC(=O)C(=O)NCC(c1ccc2c(c1)OCO2)N1CCOCC1 (stereo unspecified) | inactive: -11.4% |
| CCc1ccc(CNc2nc3nc(C)c(Cc4ccccc4)c(=O)n3[nH]2)cc1 | inactive: -2.4% |
| CCc1ccc(-c2nc(SCC(=O)NCCOC)c(-c3ccc(C)cc3)[nH]2)cc1 | inactive: -21.9% |
| CCc1ccc(CN2CCc3nc(Nc4ccc5c(c4)OCCO5)ncc3C2)cc1 | inactive: -16.6% |
| COc1ccc(Nc2nnc(-c3ccc(C)c(S(N)(=O)=O)c3)c3ccccc23)cc1 | inactive: -39.4% |
| CC(=O)c1cccc(NC(=O)C2=CC(c3ccco3)=NS(=O)(=O)N2C)c1 | inactive: -1.74% |
| CCC(CC)C(=O)Nc1ccccc1C(=O)OCc1cc(=O)n2nc(C3CCCCC3)sc2n1 | inactive: -18.7% |
| COc1ccc(Cl)cc1N(C)C(=O)Cn1cnc2sc(C)c(S(=O)(=O)N3CCN(c4ncccn4)CC3)c2c1=O | inactive: -11.7% |
| CCOc1ccc(CNC(=O)Cn2ncc3c(=O)oc4ccc(C)cc4c32)cc1 | inactive: -11.5% |
| Cc1ccc(C)c(CN2C(=O)c3ccccc3S(=O)(=O)c3ccc(C(=O)N4CCOCC4)cc32)c1 | inactive: -31.6% |
| COc1ccc(C(=O)N2CCCCC2CCN2CCCCC2)cc1 (stereo unspecified) | inactive: -4.06% |
| COc1ccc(Cl)cc1NC(=O)[C@H]1O[C@@H]2OC(C)(C)O[C@@H]2[C@H]2OC(C)(C)O[C@H]21 | inactive: -8.16% |

| Compound | activity change, positive = activation |
| --- | --- |
| O=S(=O)(c1cccs1)N1CCN(c2ccc(Cl)cc2)CC1 | inactive: 0.955% |
| Cc1ccc(-c2cc(C(F)(F)F)n3nc(C(=O)Nc4ccc(C#N)cc4)cc3n2)cc1 | inactive: -3.49% [at 11.5 µM, percent change from vehicle, -100% = no light] |
| CCOc1ccccc1CNC(=O)CCCN1C(=O)CCn2nc(-c3cccn3C)cc21 | inactive: -6.86% |
| Cc1ccc(CNC(=O)C2CCN(S(=O)(=O)c3ccc4c(c3)oc(=O)n4C)CC2)cc1 | inactive: -6.11% |
| CCc1ccc(-n2nc(C)c3c(C)cc(=O)n(CC(=O)Nc4ccc(OC)c(OC)c4)c32)cc1 | inactive: 8.53% |
| CCOC(=O)c1c(C)[nH]c(C)c1S(=O)(=O)N1CCCC(C(=O)N2CCN(c3cc(C)ccc3C)CC2)C1 (stereo unspecified) | inactive: -50.2% |
| O=C(CNS(=O)(=O)c1ccc(Br)s1)N1CCN(c2ccccc2F)CC1 | inactive: -20.4% |
| Cc1nn(CC(=O)N2CCN(c3ccccc3)CC2)c(=O)c2cccn12 | inactive: -4.85% |
| Cc1ccc(-c2nc3c(cnn3-c3ccccc3)c(=O)n2-c2ccc(Cl)cc2)cc1 | inactive: -14.7% |
| COc1cccc(OC)c1C(=O)Nc1ccc2c(c1)CCCN2S(=O)(=O)c1ccc(C)cc1 | inactive: -22% |
| O=C(COCc1cc(-c2ccco2)on1)Nc1ccc(OC(F)(F)F)cc1 | inactive: -6.72% |
| Cc1oc(-c2ccc(Cl)cc2)nc1Cn1c(=O)cc(-c2ccccc2)c2c(C)nn(C)c21 | inactive: -25.1% |
| CCN1CCN(C(=O)c2ccc3c(c2)N(Cc2cc(C)ccc2C)C(=O)c2ccccc2S3=O)CC1 (stereo unspecified) | inactive: -14.2% |
| COc1ccc(NC(=O)Cn2cc(C(=O)C3CC3)c3ccccc32)cc1 | inactive: -11.7% |
| COC(=O)c1cc(NC(=O)CN(c2ccccc2)S(=O)(=O)N(C)C)ccc1Cl | inactive: -26% |
| NS(=O)(=O)c1ccc(CCNc2nc3c(-c4cccc(F)c4)nnn3c3ccc(Cl)cc23)cc1 | inactive: 15.9% |
| CCOc1ccccc1NC(=O)Cn1nnc2sc3c(c2c1=O)CCC(C(C)(C)C)C3 (stereo unspecified) | inactive: -0.0682% |
| Cc1ccc(CSc2nc3ccc(NC(=O)COc4ccccc4F)cc3s2)cc1 | inactive: -5.95% |
| CCN(CC)CCCNC(=O)Cn1c(-c2cccs2)cc2cc(Cl)ccc21 | inactive: -24.5% |
| O=C(CCCCn1c(=O)[nH]c2ccsc2c1=O)N1CCN(c2cccc(Cl)c2)CC1 | inactive: -35.6% |
| CCCCN(CCCC)S(=O)(=O)c1ccc2oc(C(=O)NCc3ccccc3)c(C)c2c1 | inactive: -2.51% |
| CCOC(=O)c1c(C)oc2c(Cl)cc(NS(=O)(=O)c3ccc(Cl)c(C)c3)cc12 | inactive: -12.9% |
| Cc1cc(C)c(/C=C/c2onc(C)c2S(=O)(=O)N2CCC(C(=O)NCc3ccco3)CC2)c(C)c1 | inactive: -25% |

| Compound | activity change, positive = activation |
| --- | --- |
| CCOC(=O)N1CCN(C(=O)CN(c2ccc(C)cc2C)S(=O)(=O)c2ccccc2)CC1 | inactive: -11.7% |
| CCOC(=O)c1c(C)[nH]c(C)c1S(=O)(=O)N(C)CC(=O)N1CCN(c2ccccc2OC)CC1 | inactive: -13.1% |
| O=C(CN1C(=O)C2(SCC(=O)N2c2cccc(Cl)c2)c2ccccc21)NC1CCCCC1 (stereo unspecified) | inactive: -16.2% |
| CCCNC(=O)CN1C(=O)c2cccnc2Sc2ccccc21 | inactive: -9.92% |
| Cc1cccc(NC(=O)CSc2nc(C)c(Cc3ccccc3)c(=O)[nH]2)c1 | inactive: -23.3% |
| C[C@@H]1CN(c2c(F)c(N)c3c(=O)c(C(=O)O)cn(C4CC4)c3c2F)C[C@H](C)N1 | inactive |
| Nc1nc(-c2nn(Cc3ccccc3F)c3ncccc23)nc(N)c1N1CCOCC1 | inactive: -17.4% |
| COc1ccccc1N1CCN(C(=O)c2c3c(nc4ccccc24)C(=O)N(C2CCCCC2)C3)CC1 | inactive: -7.22% |
| COc1ccc(-c2nc(CNS(=O)(=O)c3ccc(F)cc3)cs2)cc1 | inactive: -27.9% |
| Cc1ccc(C)c(N2CCN(C(=O)c3c4c(nc5ccccc35)C(=O)N(C3CCCCC3)C4)CC2)c1 | inactive: -20.9% |
| O=C(CSc1nc2c(c(=O)[nH]1)CN(Cc1ccc3c(c1)OCO3)CC2)Nc1ccc(F)cc1 | inactive: -3.08% |
| O=C(N/N=C/c1ccccc1O)c1ccncc1 | inactive: -16% |
| CCCOc1cccc(C(=O)Nc2ccc(-c3nc4ccccc4o3)cc2)c1 | inactive: -14.7% |
| COc1cc(OC)cc(-n2c(=O)c3ccccc3n(CC(=O)NCCc3ccc(OC)c(OC)c3)c2=O)c1 | inactive: 5.42% |
| COc1ccc2cc(CNc3ccc(OC)c(OC)c3)c(=O)n(CC(=O)Nc3ccc(C)cc3)c2c1 | inactive: -9.1% |
| CCc1ccc(NC(=O)c2ccc(CN3C(=O)C(C)=C(c4ccc(C)cc4)S3(=O)=O)cc2)cc1 | inactive: -32.9% |
| COc1ccc(-c2onc(C)c2C)cc1S(=O)(=O)N1CCC(C)CC1 | inactive: -47.4% |
| COc1cccc(-c2nc(C(N)=O)c3c(n2)n(-c2ccc4c(c2)OCO4)c(=O)n3C)c1OC | inactive: -18.5% |
| Cn1c(C(=O)NCc2cccc(F)c2)cc2cc(S(=O)(=O)N3CCCCC3)ccc21 | inactive: -35.6% |
| CSc1nc2c([nH]c3ccccc32)c(=O)n1-c1ccc(F)cc1 | inactive: -28.8% |
| O=C(Cn1cc(S(=O)(=O)Cc2ccc(F)cc2)c2ccccc21)NCc1ccccc1 | inactive: -24% |
| COc1ccccc1CCNC(=O)c1cccn1-c1nnc(N2CCCCC2)s1 | inactive: -13.3% |
